# The supplement of paper PMC3656093
# ± gives the standard deviation of the averaged measurements. Whole data set: some 1,900 compounds, median “CD40L-induced NF-kB luciferase activity, plate-corrected, relative to DMSO (0) and IKK inhibitor VII (-100) controls” near 0.032, cut for the lowest 2% near -26. The list shows a part of the results.
# Tested on: BL2-NFkB-Luc
# Experiment: CD40L-induced NF-kB luciferase activity, plate-corrected, relative to DMSO (0) and IKK inhibitor VII (-100) controls (% normalized activity); higher = more NF-kB reporter activity (less inhibition)
# Conditions: 9.4 µM; stimulus: tCD40L 64 ng/ml; 4.5 h
# Protocol: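 BL2 B cells with a stable NF-kB response-element luciferase reporter (BL2-NFkB-Luc), 384-well. Cells were pre-incubated with compound at 9.4 uM for 1 h at 37 C, then stimulated with 64 ng/ml trimerized CD40L for 4.5 h; luciferase was read with Steady-Glo. Signal was normalised per plate in Genedata (median DMSO neutral control = 0, median IKK inhibitor VII at 50 uM = -100) with Assay Median plate-pattern correction; duplicate plates.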
row,SMILES,CD40L-induced NF-kB luciferase activity
1,COc1cc(OC)c(C2C(C#N)=C(N)OC3=C2C(=O)CC(C)(C)C3)cc1OC (stereo not given),-6.09 ± 9.2
2,COc1cc(C(=O)NCCCCCC(=O)O)cc(OC)c1OC,0.0588 ± 0.9
3,COCCOC(=O)c1c(C)oc2ccc(OCc3cc(C(=O)OC)oc3C)cc12,-1.8 ± 0.73
4,O=C1C(=O)c2ccccc2C(O)=C1c1ccccc1F,-1.75 ± 1.4
5,COc1ccc(CCNc2ncnc3c2[nH]c2cc(OC)c(OC)cc23)cc1OC,0.0735 ± 2.6
6,Cc1cc(=O)oc2cc(OC(C)C(=O)NCC3CCCO3)ccc12 (stereo not given),-1.24 ± 1.4
7,CCCCCC#CCC#CCC#CCC#CCCCC(=O)O,1.01 ± 0.55
8,CCN(Cc1cnn(C)c1)Cc1nc(C(c2ccccc2)c2ccccc2)no1,-0.986 ± 2.9
9,Cc1ccc(CN2CCN(CCCc3ccccc3)CC2CCO)cc1 (stereo not given),0.826 ± 1.2
10,O=C(Nc1ccccc1)c1ccccc1CCc1ccccc1,-5.88 ± 6.5
11,CC1=C(/C=C/C(C)=C/C=C/C(C)=C/C(=O)O)C(C)(C)CCC1,-1.84 ± 3.9
12,Cc1[nH]c2ccccc2c1/C=C/c1nc2ccccc2c(=O)n1CCO,2.11 ± 2.5
13,CC1(C)CC(=O)c2c(nc3ccccc3c2N)C1,3.92 ± 3.9
14,O=C(Nc1c(C(=O)O)[nH]c2ccccc12)NC1CCCCC1,-0.728 ± 0.3
15,CC1CCN(CCOCCOc2ccccc2Br)CC1,-6.43 ± 0.53
16,CC(C)[C@H]1CN(C)CCN1Cc1cn(C)nc1-c1cccc(Cl)c1,2.03 ± 0.42
17,CCC(CO)NCCNC(CC)CO (stereo not given),-0.602 ± 4.3
18,c1cnc(N2CCN(Cc3ccc4c(c3)OCO4)CC2)nc1,1.72 ± 4.8
19,CN(C)C(=O)C12CCC(C)(c3nc4ccccc4nc31)C2(C)C (stereo not given),-0.308 ± 2.1
20,CNS(=O)(=O)c1ccc(C)cc1,-4.84 ± 3.1

row,SMILES,CD40L-induced NF-kB luciferase activity
1,COC(=O)c1ccc2c(c1)C(=O)/C(=C/c1ccc(O)cc1)O2,27.6 ± 4.8
2,COc1cccc(-n2cc(CNCc3c(C(=O)N(C)C)nc4ccc(Cl)cn34)cn2)c1,-9.15 ± 7.3
3,COC(=O)c1cc(C(=O)NCCC(C)C)cc([N+](=O)[O-])c1,2.53 ± 4.5
4,CC(C)NCC(O)COc1ccc(CCOCC2CC2)cc1 (stereo not given),2.37 ± 1.7
5,O=C(NCCc1cccc(F)c1)[C@@H]1CSC2c3ccccc3C(=O)N21 (stereo not given in full),1.68 ± 3.7
6,CCc1nc(N)nc(N)c1-c1ccc(Cl)cc1,-2.25 ± 6.6
7,CC(=O)[C@@]1(O)CC[C@H]2[C@@H]3C[C@H](C)C4=CC(=O)C=C[C@]4(C)[C@@]3(F)[C@@H](O)C[C@@]21C,-27 ± 2.1
8,Clc1ccc(OCCCN2CCCCC2)c(Br)c1,26.05 ± 0.19
9,C1CCC(C(CC2CCCCN2)C2CCCCC2)CC1 (stereo not given),-4.41 ± 2.6
10,COc1cccc(CN2CCN(C(=O)c3ccc(-c4ccccc4)cc3)CC2)c1,-7.33 ± 1.1
11,Cc1ccc(S(=O)(=O)N[C@@H](Cc2ccccc2)C(=O)CCl)cc1,-1.58 ± 3.4
12,Cc1ccc(S(=O)(=O)Nc2ccc(S(=O)(=O)Nc3cc(C)nc(C)n3)cc2)cc1,-8.38 ± 8.1
13,CCN(CC)CCCNC(=O)C1c2ccccc2Oc2ccccc21,-3.46 ± 0.27
14,COc1ccc(CCN=C(N)C(C)c2ccccc2)cc1OC (stereo not given),-3.05 ± 0.85
15,COC1CCN(C(=O)c2ccc(OC3CCN(Cc4ccccn4)CC3)cc2)CC1,1.24 ± 1.7
16,C1COC(NC(C2CC2)C2CC2)=N1,-13.2 ± 2.6
17,OC[C@H]1O[C@@H](n2cnc3c(NC4CCCC4)ncnc32)[C@H](O)[C@@H]1O,2.06 ± 1.5
18,CCOc1cc(C)cc2oc(=O)cc(-c3ccccc3)c12,3.93 ± 4.9
19,CCN(Cc1ccncc1)Cc1nc(Cc2ccccc2Cl)no1,-7.81 ± 3.5
20,O=C1c2ccccc2C(=O)N1N=Cc1ccc(Oc2ccc([N+](=O)[O-])cn2)cc1,-4.09 ± 2.3

row,SMILES,CD40L-induced NF-kB luciferase activity
1,CC(C)CC(=O)Nc1ccc2oc(-c3ccncc3)nc2c1,26 ± 0.73
2,COc1cccc2c1C(=O)O/C2=C/c1ccc2c(c1)OCO2,28.6 ± 1.4
3,Cc1ccc2c(c1C)NC(C(=O)O)C1CC=CC21 (stereo not given),3.76 ± 5.1
4,c1cc2c(cc1C1CCCCC1)c1c3n2CCN=C3CCC1,0.187 ± 4.2
5,CC(C)[N+](C)(CCOC(=O)C1c2ccccc2Oc2ccccc21)C(C)C,0.014 ± 1.2
6,CC(C)CCn1c(N2CCc3ccccc3C2)nc2c1c(=O)[nH]c(=O)n2C,-3.02 ± 1.3
7,c1ccc(Nc2ccccn2)nc1,6.17 ± 1.9
8,Cc1oc2c(O)c(O)ccc2c(=O)c1-c1ccccc1,-3.05 ± 0.95
9,O=C(O)CCNC(=O)c1ccccc1,-9.57 ± 13
10,CC1=NN(c2ccccc2)C(=O)C1,5.27 ± 1.1
11,COc1ccc(S(=O)(=O)NCc2ccco2)c2ccccc12,-4.19 ± 2.6
12,CCc1ccc(/C=C2\Oc3cc(OC(=O)N4CCOCC4)ccc3C2=O)cc1,-1.86 ± 2.5
13,CCN(CC)CCNC(=O)c1cc(Cl)c(N)cc1OC,-2.68 ± 3.5
14,Cn1c(=O)c2c(nc(SCCN3CCCCC3)n2C)n(C)c1=O,20.3 ± 3.3
15,COc1cc2c(cc1OC)C1(CCCC1)CNC2c1cccc([N+](=O)[O-])c1 (stereo not given),3.56 ± 5.5
16,CCOc1ccc2ccccc2c1C(=O)N[C@@H]1C(=O)N2[C@@H]1SC(C)(C)[C@@H]2C(=O)O,-1.05 ± 2.5
17,CCCC(=O)O[C@]1(C(=O)CCl)[C@@H](C)C[C@H]2[C@@H]3CCC4=CC(=O)C=C[C@]4(C)[C@@]3(F)C(=O)C[C@@]21C,-27.9 ± 3.7
18,NCCCC(=O)O,-0.919 ± 3
19,O=C(c1ccccc1)N1CCN(C(=O)c2ccccc2)CC1,-3.7 ± 1.3
20,COc1ccc(OC)c(S(=O)(=O)N2CCCc3ccccc32)c1,-3.54 ± 0.38
